Assay results as given in the BET-seq Pho4 binding data (Le et al. 2018).
The list shows a part of the results. Values were computed here from the reads of four pooled replicates and scatter widely.

Biological target: T1, Pho4 (S. cerevisiae) (UniProt P07270)
T1 sequence: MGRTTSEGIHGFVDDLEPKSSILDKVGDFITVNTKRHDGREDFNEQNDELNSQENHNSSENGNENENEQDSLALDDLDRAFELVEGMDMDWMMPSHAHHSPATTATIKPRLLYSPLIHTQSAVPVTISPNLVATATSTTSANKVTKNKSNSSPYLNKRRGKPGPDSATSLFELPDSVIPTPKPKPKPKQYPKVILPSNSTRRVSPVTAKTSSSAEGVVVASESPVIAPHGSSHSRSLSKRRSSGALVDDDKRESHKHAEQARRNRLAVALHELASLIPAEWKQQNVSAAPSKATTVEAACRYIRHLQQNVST
Assay: relative binding free energy (BET-seq); higher = weaker binding
Details: reference: library average

Sequence | relative binding free energy
CGTGGCACGTGTGGTG | -0.11 kcal/mol
TTCATCACGTGGAGGT | 0.11 kcal/mol
GGTTGCACGTGTAAAG | 0.08 kcal/mol
ATCTTCACGTGAATTG | 0.39 kcal/mol
CGGGTCACGTGTTCAT | 0.06 kcal/mol
GGTGGCACGTGGTAAT | 0 kcal/mol
TAGGTCACGTGGGAGC | -0.05 kcal/mol
CGTGGCACGTGATTTG | 0.17 kcal/mol
CTGAACACGTGTTGTG | -0.06 kcal/mol
TTGGACACGTGTTTTT | 0.07 kcal/mol
CGTATCACGTGTTAGT | 0.14 kcal/mol
GTTGGCACGTGGGCTG | -0.23 kcal/mol
TGCGGCACGTGCGAGG | -0.23 kcal/mol
GCGGCCACGTGGGTGT | -0.18 kcal/mol
TCTGGCACGTGTGAGT | 0.05 kcal/mol
GTTATCACGTGGTAGA | 0 kcal/mol
GAGGACACGTGGAGTA | 0.2 kcal/mol
AGGGGCACGTGGGGTA | -0.18 kcal/mol
TGAAACACGTGAGGTT | 0.23 kcal/mol
TCGGTCACGTGCGATT | 0.19 kcal/mol
TAGTACACGTGGGTAG | -0.08 kcal/mol
AGTGGCACGTGGTATA | -0.2 kcal/mol
CTTGTCACGTGGTGGT | 0.05 kcal/mol
TACAGCACGTGTGGGA | -0.05 kcal/mol
GGATTCACGTGGCAGT | 0.21 kcal/mol
TTCATCACGTGATGTG | 0.25 kcal/mol

Sequence | relative binding free energy
TAATTCACGTGATAAG | 0.42 kcal/mol
AAACGCACGTGGGGGA | -0.23 kcal/mol
GGAGTCACGTGGGAAG | 0.28 kcal/mol
ATAGTCACGTGCTTTA | -0.04 kcal/mol
CCGTTCACGTGTGGGT | 0.34 kcal/mol
TATGTCACGTGGCGCT | -0.15 kcal/mol
ACTCGCACGTGTGGGG | -0.11 kcal/mol
GGCTGCACGTGTTATT | 0.11 kcal/mol
TCTTGCACGTGTTGCT | -0.07 kcal/mol
TTTGGCACGTGGTAAA | -0.15 kcal/mol
CTTAGCACGTGTGTGG | -0.09 kcal/mol
GGGAACACGTGAGTTG | 0.45 kcal/mol
AGAAGCACGTGGCGTG | -0.08 kcal/mol
CGTGCCACGTGGGGCA | -0.23 kcal/mol
AGCGACACGTGGATTG | 0.17 kcal/mol
CAGTGCACGTGTGTTG | -0.02 kcal/mol
ATTACCACGTGGGAGT | -0.1 kcal/mol
TTCTTCACGTGCTGAT | 0.2 kcal/mol
TGAGTCACGTGTGTTT | 0.18 kcal/mol
AGTGGCACGTGGATTG | -0.14 kcal/mol
GGAAACACGTGTGGGT | 0.19 kcal/mol
GATTACACGTGGTCTG | 0.08 kcal/mol
AGATGCACGTGCTAGG | -0.2 kcal/mol
TGTCGCACGTGGTCGT | -0.1 kcal/mol
CTAAGCACGTGTGGGA | -0.05 kcal/mol
TTTACCACGTGTGTTA | -0.03 kcal/mol

Sequence | relative binding free energy
TTATGCACGTGAGACT | 0.14 kcal/mol
TTTATCACGTGTAAAG | 0.19 kcal/mol
TGATTCACGTGTCGGC | 0.29 kcal/mol
TTAGACACGTGGTGAT | -0.03 kcal/mol
GGGTGCACGTGCCGGT | -0.1 kcal/mol
ATGTTCACGTGAATTA | 0.31 kcal/mol
GCAGTCACGTGGAGTG | 0.09 kcal/mol
TGCGGCACGTGTTGAT | -0.04 kcal/mol
GAAGTCACGTGGAGGA | 0.21 kcal/mol
GAGTTCACGTGATGTA | 0.32 kcal/mol
TAGAGCACGTGGGACG | -0.19 kcal/mol
TGTAGCACGTGCGAGA | -0.03 kcal/mol
TGTGACACGTGGCCTG | -0.04 kcal/mol
GGGGCCACGTGGGTCA | -0.17 kcal/mol
TCGGGCACGTGCGCGG | -0.02 kcal/mol
TCGCGCACGTGTGTTG | -0.1 kcal/mol
TTGCGCACGTGTGAAG | 0 kcal/mol
ATAGTCACGTGTGGGG | 0.25 kcal/mol
ATGGTCACGTGTCTCG | 0.16 kcal/mol
AAGGACACGTGAGGGG | 0.23 kcal/mol
TGAGACACGTGGCTAG | 0.12 kcal/mol
CGTGGCACGTGGTTCG | -0.14 kcal/mol
ATAAACACGTGGGCGT | -0.19 kcal/mol
TCTGGCACGTGGCTGT | -0.07 kcal/mol
GGCGGCACGTGGCTTT | -0.08 kcal/mol
TGTGACACGTGAGTGA | 0.26 kcal/mol

Sequence | relative binding free energy
GGGTGCACGTGGGCTG | -0.13 kcal/mol
ATAGACACGTGATGTA | 0.16 kcal/mol
TTATTCACGTGAGACG | 0.44 kcal/mol
TAGGGCACGTGATACT | 0.05 kcal/mol
CAGTGCACGTGGGTGG | -0.13 kcal/mol
TTTAACACGTGTTTAT | -0.12 kcal/mol
GGGGCCACGTGGGGTG | -0.25 kcal/mol
GGAGACACGTGGAAGT | 0.17 kcal/mol
CGAAGCACGTGATGGT | 0.02 kcal/mol
GCGGTCACGTGTGGAG | 0.08 kcal/mol
TCGTGCACGTGTTTTG | 0.13 kcal/mol
AGGTTCACGTGAGCTG | 0.35 kcal/mol
TCGGGCACGTGTGAAT | 0.03 kcal/mol
GTAGTCACGTGAGCAG | 0.48 kcal/mol
GTTTGCACGTGCGTCT | -0.08 kcal/mol
CGAGACACGTGGGGGC | -0.11 kcal/mol
CGAGACACGTGGGAGG | -0.08 kcal/mol
GAAGTCACGTGGCTGG | 0.14 kcal/mol
CACATCACGTGGGGGT | 0.08 kcal/mol
AAGTGCACGTGTTGCG | -0.16 kcal/mol
CGTCGCACGTGGAGGG | -0.11 kcal/mol
GTATACACGTGTGCTT | 0.01 kcal/mol
TTGTACACGTGTTAAG | 0.1 kcal/mol
AGGGACACGTGTGAAG | -0.04 kcal/mol
ATTTGCACGTGAAAGT | 0.35 kcal/mol
CAGAGCACGTGGGTTG | -0.24 kcal/mol

Sequence | relative binding free energy
TTAGACACGTGATTAG | 0.19 kcal/mol
TTGTTCACGTGTTTGT | 0.25 kcal/mol
GAGATCACGTGGTAGT | 0.16 kcal/mol
CTTGGCACGTGTTGGG | -0.13 kcal/mol
TTTCGCACGTGATATG | 0.02 kcal/mol
TGTGTCACGTGATATA | 0.15 kcal/mol
CTGTACACGTGAGTGG | 0.33 kcal/mol
CTTTTCACGTGCGGAT | 0.43 kcal/mol
ATAGGCACGTGTTAAA | -0.02 kcal/mol
CTGTACACGTGTGGCG | 0.17 kcal/mol
CCGGTCACGTGCGGGT | 0.07 kcal/mol
TGTTCCACGTGTATAT | -0.03 kcal/mol
ATTGGCACGTGTTTTA | -0.04 kcal/mol
AGACTCACGTGAGTGG | 0.31 kcal/mol
ATTTACACGTGATGGC | 0.31 kcal/mol
GAAGGCACGTGTGATT | -0.1 kcal/mol
ACCTTCACGTGGTTTG | 0.3 kcal/mol
TATGGCACGTGAATCG | 0.11 kcal/mol
TGTGCCACGTGTCAGT | -0.08 kcal/mol
GGTAGCACGTGGTTAT | -0.04 kcal/mol
GTCCGCACGTGAGTGT | 0.17 kcal/mol
GGTGTCACGTGAAATT | 0.38 kcal/mol
GTGCGCACGTGAGTGA | 0.22 kcal/mol
AACTGCACGTGGGGGA | -0.14 kcal/mol
GTTTTCACGTGGGTAA | 0.3 kcal/mol
GATAACACGTGTAGGT | 0.03 kcal/mol

Sequence | relative binding free energy
GTGCACACGTGGCGGG | -0.12 kcal/mol
TAGGTCACGTGAGATA | 0.28 kcal/mol
TTTGTCACGTGCTTCT | 0.09 kcal/mol
GGGTTCACGTGTGCCG | 0.16 kcal/mol
CGGCTCACGTGGGTAG | 0.08 kcal/mol
GTATTCACGTGCTCGG | 0.25 kcal/mol
AAGATCACGTGTGTAG | 0.09 kcal/mol
GTATTCACGTGGGGTC | 0.28 kcal/mol
TACGTCACGTGGTATT | -0.03 kcal/mol
GGAGACACGTGTGGGG | 0.09 kcal/mol
GGGCGCACGTGGTAAT | -0.16 kcal/mol
TGCATCACGTGAGGTT | 0.42 kcal/mol
TATCGCACGTGGACGG | 0.1 kcal/mol
ACGCGCACGTGGGTGG | -0.39 kcal/mol
GTTGCCACGTGAAATT | 0.35 kcal/mol
GTTCGCACGTGTTGTT | 0.03 kcal/mol
GTACGCACGTGTTTGG | -0.05 kcal/mol
TATGACACGTGGCGGG | -0.11 kcal/mol
GATATCACGTGGTCGG | 0.22 kcal/mol
TAGGTCACGTGAAAGG | 0.32 kcal/mol
GAGCGCACGTGTGGTG | -0.15 kcal/mol
TTCGTCACGTGTGCTT | 0.2 kcal/mol
TGGTTCACGTGTGAGG | 0.37 kcal/mol
CGTATCACGTGGTTTT | 0.24 kcal/mol
AGGGACACGTGAGGTA | 0.12 kcal/mol
GAATTCACGTGAGAGT | 0.38 kcal/mol

Sequence | relative binding free energy
AGGTCCACGTGGCGTG | -0.17 kcal/mol
TCTTGCACGTGGGTGC | -0.08 kcal/mol
TCGAGCACGTGTGTGA | -0.1 kcal/mol
TGTCGCACGTGTGTTT | 0.06 kcal/mol
ATATGCACGTGTTGAA | -0.06 kcal/mol
GATTTCACGTGGCAGT | 0.32 kcal/mol
CTGCTCACGTGTGATT | 0.4 kcal/mol
TTAGGCACGTGATCTG | -0.03 kcal/mol
GGGTGCACGTGTGCGC | 0.02 kcal/mol
GGGCGCACGTGGTCTT | -0.13 kcal/mol
CAGGACACGTGTGAGG | 0.04 kcal/mol
TTGCACACGTGATAGT | 0.17 kcal/mol
TCTGTCACGTGGTGGT | 0.1 kcal/mol
ACGGTCACGTGATGGG | 0.18 kcal/mol
CTGTTCACGTGAGTTA | 0.38 kcal/mol
TAGATCACGTGGTTCA | 0.11 kcal/mol
AGAATCACGTGTTTTA | 0.13 kcal/mol
TGGTACACGTGCGTAG | 0.03 kcal/mol
GGGAACACGTGAAGTG | 0.44 kcal/mol
ATTTTCACGTGGCTTT | 0.3 kcal/mol
ATCATCACGTGGGGTT | -0.02 kcal/mol
CGTGCCACGTGGTGGG | -0.24 kcal/mol
TATTACACGTGTCTGA | 0.19 kcal/mol
CTTTACACGTGTTGGC | 0.29 kcal/mol
AGTGGCACGTGCTAGG | -0.03 kcal/mol
TAGTTCACGTGCGATG | 0.44 kcal/mol

Sequence | relative binding free energy
TTCGACACGTGTGAGT | 0.01 kcal/mol
TTGGGCACGTGTTACT | -0.14 kcal/mol
GGATTCACGTGTGGTA | 0.36 kcal/mol
TTGAACACGTGAGAGT | 0.27 kcal/mol
ATCTTCACGTGGGATT | 0.18 kcal/mol
TGAGACACGTGTAGCG | 0.16 kcal/mol
CGTTACACGTGTGAGT | 0.01 kcal/mol
ATAAACACGTGAAGGG | 0.26 kcal/mol
GGGGGCACGTGGACCT | -0.22 kcal/mol
CTGTCCACGTGGTGGG | -0.11 kcal/mol
GATTGCACGTGCTTTG | 0.04 kcal/mol
TAGGCCACGTGTTGGA | -0.09 kcal/mol
GTTTTCACGTGTGTCG | 0.25 kcal/mol
GTGTTCACGTGGCTGA | 0.4 kcal/mol
TTTTGCACGTGGTCCC | 0.13 kcal/mol
TCTAGCACGTGAGAGG | 0.17 kcal/mol
ATATTCACGTGGTGCG | -0.11 kcal/mol
CGTTGCACGTGCTTGT | -0.03 kcal/mol
AGTGACACGTGGTACG | -0.02 kcal/mol
AGGTTCACGTGTTCGT | 0.27 kcal/mol
AAGAGCACGTGTGTGA | 0.02 kcal/mol
GAAGGCACGTGGCATG | -0.09 kcal/mol
TGTTTCACGTGTTGCA | 0.19 kcal/mol
GAGTACACGTGTAGGG | 0.26 kcal/mol
TGTTTCACGTGGTTGC | 0.24 kcal/mol
CTGTTCACGTGTTTAG | 0.26 kcal/mol

Sequence | relative binding free energy
CGATGCACGTGGGCGG | -0.11 kcal/mol
CTGGGCACGTGGGACA | -0.15 kcal/mol
GGTGACACGTGTAGTC | 0.17 kcal/mol
CAGTACACGTGTAGGT | 0.19 kcal/mol
ATGTGCACGTGTCATT | -0.15 kcal/mol
TAAAGCACGTGTCGGG | -0.05 kcal/mol
TTGGACACGTGTAGGA | 0.11 kcal/mol
ACTGGCACGTGGTTAT | -0.28 kcal/mol
TGGGTCACGTGGGAAG | 0.04 kcal/mol
GTGGGCACGTGTAGGG | 0.04 kcal/mol
TTGATCACGTGTTTGG | 0.15 kcal/mol
GGTACCACGTGTGTTG | -0.04 kcal/mol
ATGCGCACGTGTCGGG | 0.03 kcal/mol
TTATTCACGTGCTGGG | 0.28 kcal/mol
TGTGCCACGTGGGAGA | -0.22 kcal/mol
TCTCACACGTGGTGTG | 0 kcal/mol
GGCTGCACGTGTTGAT | 0.14 kcal/mol
TAGTCCACGTGGGGTT | -0.06 kcal/mol
TCAGTCACGTGGTGGC | -0.04 kcal/mol
ATCTGCACGTGGAGTT | 0.03 kcal/mol
TCGGGCACGTGTTTGG | 0.01 kcal/mol
TGGGTCACGTGTAGGT | 0.17 kcal/mol
